# Laboratory results as given in PubChem BioAssay (Tox21).
# Where “and” joins values, the source holds several entries; their conditions need not be identical. Equal entries are not always repeated. The inconclusive results got no clear call from the source; some entries with a clear call stand among them for comparison. For some assays here: Potencies beside an inconclusive call are fits to weak or partial responses and may not hold up. A structure can be active in one record and inactive in another. Calls of active or inactive are those of the source. Unless noted, calls come from the whole dose curve; as a rule, active = well fitted curve in the direction sought with a large enough effect in the repeat runs; inconclusive = weak or mixed curves; inactive = no such curve, though single readings can be large; an effect the other way counts as inactive or inconclusive.
# How the values were obtained:
# [1] = qHTS assay to identify aromatase inhibitors - cell viability counter screen (AID 743084); conditions: MCF-7 aro ERE viability, CellTiter-Fluor, 24 h; activity change, negative = cytotoxicity: at 70.3 µM (top of the series);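 note: cells stimulated with testosterone during compound exposure; potency is the fitted concentration of half-maximal effect; nearly all actives have a fitted effect of over 55% in size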
# [2] = qHTS assay to identify small molecule that activate the aryl hydrocarbon receptor (AhR) signaling pathway - cell viability counter screen (AID 743086); note: potency is the fitted concentration of half-maximal effect; nearly all actives have a fitted effect of over 45% in size
# Method in brief: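 HepG2-AhR-luc (HG2L7.5c1) cells, 4000/well, were preincubated 5 h at 37C, exposed to compound in qHTS format for 24 hr at 37C, then given CellTiter-Fluor for 30 min; viability was read as fluorescence in the reporter wells.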
# [3] = target: Peroxisome proliferator-activated receptor gamma (Homo sapiens) (UniProt P37231); assay: qHTS assay to identify small molecule agonists of the peroxisome proliferator-activated receptor gamma (PPARg) signaling pathway (AID 743094; active = well fitted activation curve with a large enough effect in the signal ratio in the repeat runs, not every such curve was filed as active; inconclusive = weak or mixed curves, or effect the other way; inactive = no such curve, though single readings can be large or run the other way; the % refers to the signal ratio; note: potency is the fitted concentration of half-maximal effect; for activation: % is set by controls: 0 for no effect and ±100 for the full control effect); conditions: HEK293H PPARg-UAS-bla, beta-lactamase FRET ratio, 17 h; activation: at 57 µM (top of the series) unless noted
# Chain of UniProt P37231 (P37231 whole entry, looked up): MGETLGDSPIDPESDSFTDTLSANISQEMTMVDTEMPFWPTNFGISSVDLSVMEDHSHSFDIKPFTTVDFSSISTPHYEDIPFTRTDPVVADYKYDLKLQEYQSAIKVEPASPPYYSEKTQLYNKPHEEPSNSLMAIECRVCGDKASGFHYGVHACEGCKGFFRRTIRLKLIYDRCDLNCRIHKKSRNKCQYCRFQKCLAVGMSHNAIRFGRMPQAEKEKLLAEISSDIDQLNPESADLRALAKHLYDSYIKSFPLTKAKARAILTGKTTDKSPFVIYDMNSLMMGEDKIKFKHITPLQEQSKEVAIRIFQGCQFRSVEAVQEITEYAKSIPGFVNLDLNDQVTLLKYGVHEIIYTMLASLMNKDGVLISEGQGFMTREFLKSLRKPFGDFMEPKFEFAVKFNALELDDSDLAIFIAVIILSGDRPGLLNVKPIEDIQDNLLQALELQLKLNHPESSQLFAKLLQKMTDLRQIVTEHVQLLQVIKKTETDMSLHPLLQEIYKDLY
# Method in brief: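 GeneBLAzer PPARg UAS-bla HEK293H cells carrying a stably integrated beta-lactamase reporter were pre-incubated 5 h at 37C, then exposed to compounds in DMSO for 17 h at 37C; LiveBLAzer B/G FRET substrate was added for 1 h at room temperature and fluorescence read.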
# [4] = qHTS assay for small molecule agonists of the antioxidant response element (ARE) signaling pathway (AID 743202; active = well fitted activation curve with a large enough effect in the signal ratio in the repeat runs, not every such curve was filed as active; inconclusive = weak or mixed curves, or effect the other way; inactive = no such curve, though single readings can be large or run the other way; the % refers to the signal ratio; note: potency is the fitted concentration of half-maximal effect); conditions: HepG2 ARE-bla reporter, beta-lactamase FRET, 16 h; activation: at 73.3 µM (top of the series) unless noted
# Method in brief: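 Compounds delivered in DMSO to ARE-bla HepG2 cells (2,000 cells/well, pre-incubated 5 h) and left 16 h at 37 C. LiveBLAzer B/G FRET substrate then added for 2 h at RT before fluorescence reading.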
# [5] = qHTS assay for small molecule activators of the heat shock response signaling pathway (AID 743210; active = well fitted activation curve with a large enough effect in the signal ratio in the repeat runs, with a control signal flat, not every such curve was filed as active; inconclusive = weak or mixed curves; the % refers to the signal ratio; note: potency is the fitted concentration of half-maximal effect); conditions: HeLa HSE-bla reporter, beta-lactamase ratio, 5 h; activation: at 62.6 µM (top of the series)
# Method in brief: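 Reporter gene assay: HeLa cells stably bearing an HSE-bla construct, compound treatment 5 h at 37 C, LiveBLAzer substrate 2.5 h at RT, fluorescence intensity.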
# [6] = qHTS assay to identify small molecule antagonists of the peroxisome proliferator-activated receptor delta (PPARd) signaling pathway - cell viability counter screen (AID 743213); conditions: PPARd-bla HEK293H viability, CellTiter-Glo luminescence, 17 h; viability change, negative = cytotoxic: at 62 µM (top of the series) unless noted; note: nearly all actives have a fitted effect of over 50% in size; note: potency is the fitted concentration of half-maximal effect; for viability change, negative = cytotoxic: % is set by controls: 0 for no effect and ±100 for the full control effect
# Method in brief: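 PPARd-bla HEK293H cells (3000/well) got compound plus 300 nM L165041 agonist for 17 h at 37 C. Viability in the same wells came from CellTiter-Glo luminescence after 30 min at room temperature.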
# [7] = target: Bile acid receptor (Homo sapiens) (UniProt Q96RI1); assay: qHTS assay to identify small molecule antagonists of the farnesoid-X-receptor (FXR) signaling pathway (AID 743217; active = well fitted inhibition curve with a large enough effect in the signal ratio in the repeat runs, not every such curve was filed as active; inconclusive = weak or mixed curves, or effect the other way; inactive = no such curve, though single readings can be large or run the other way; the % refers to the signal ratio; note: potency is the fitted concentration of half-maximal effect; for activity change, negative = inhibition: % is set by controls: 0 for no effect and ±100 for the full control effect); conditions: HEK293T FXR-UAS-bla, beta-lactamase ratio, CDCA-stimulated, 16 h; activity change, negative = inhibition: at 62.6 µM (top of the series) unless noted
# Chain of UniProt Q96RI1 (Q96RI1 whole entry, looked up): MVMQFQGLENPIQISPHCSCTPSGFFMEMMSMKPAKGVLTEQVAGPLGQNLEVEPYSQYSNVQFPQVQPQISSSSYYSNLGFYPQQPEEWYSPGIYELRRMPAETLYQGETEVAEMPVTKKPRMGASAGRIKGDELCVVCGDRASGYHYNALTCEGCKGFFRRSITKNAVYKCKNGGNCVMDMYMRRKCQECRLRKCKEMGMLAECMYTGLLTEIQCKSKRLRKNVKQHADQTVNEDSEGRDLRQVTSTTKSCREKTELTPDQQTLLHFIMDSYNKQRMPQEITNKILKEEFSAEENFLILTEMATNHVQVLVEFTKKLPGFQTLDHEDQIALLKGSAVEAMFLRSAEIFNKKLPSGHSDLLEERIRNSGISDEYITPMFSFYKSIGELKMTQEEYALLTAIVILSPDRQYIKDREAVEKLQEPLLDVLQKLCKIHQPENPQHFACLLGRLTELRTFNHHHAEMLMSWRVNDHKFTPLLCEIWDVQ
# Method in brief: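 FXR-UAS-bla HEK 293T cells pre-incubated 5 h at 37 °C, then exposed to compounds with chenodeoxycholic acid (50 uM final) for 16 h at 37 °C. Beta-lactamase reporter read by LiveBLAzer B/G FRET substrate fluorescence after 2 h at room temperature.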
# [8] = qHTS assay to identify small molecule antagonists of the peroxisome proliferator-activated receptor gamma (PPARg) signaling pathway - cell viability counter screen (AID 743194); conditions: PPARg-bla HEK293H viability, CellTiter-Glo luminescence, 17 h, co-treated with 50 nM rosiglitazone; activity change, negative = cytotoxicity: at 62.6 µM (top of the series); note: nearly all actives have a fitted effect of over 55% in size; note: potency is the fitted concentration of half-maximal effect
# Method in brief: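 PPARg-UAS-bla HEK293H cells were plated, rested 5 h at 37 C, then treated with compounds plus rosiglitazone (50 nM final) for 17 h at 37 C; viability was then read by CellTiter-Glo luminescence after 30 min at room temperature.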
# [9] = qHTS assay for small molecule activators of the heat shock response signaling pathway - cell viability counter screen (AID 743209); conditions: HSE-bla HeLa viability, CellTiter-Glo luminescence, 5 h; activity change, negative = cytotoxicity: at 62.6 µM (top of the series); note: potency is the fitted concentration of half-maximal effect; nearly all actives have a fitted effect of over 50% in size
# Method in brief: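 CellSensor HSE-bla HeLa cells, plated overnight at 37 C/5% CO2, were exposed to compounds in DMSO for 5 h at 37 C. Viability was then read in the same wells by CellTiter-Glo luminescence after 30 min at room temperature.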
# [10] = target: Bile acid receptor (Homo sapiens) (UniProt Q96RI1); assay: qHTS assay to identify small molecule agonists of the farnesoid-X-receptor (FXR) signaling pathway (AID 743220; active = well fitted activation curve with a large enough effect in the signal ratio in the repeat runs, not every such curve was filed as active; inconclusive = weak or mixed curves, or effect the other way; the % refers to the signal ratio; note: potency is the fitted concentration of half-maximal effect); conditions: HEK293T FXR-UAS-bla, beta-lactamase FRET ratio, 16 h; activation: at 62.6 µM (top of the series) unless noted
# Method in brief: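 Beta-lactamase reporter under UAS control in GeneBLAzer FXR HEK 293T cells (5000/well) measured with LiveBLAzer FRET substrate after 2 h at room temperature. Compound exposure lasted 16 h at 37C.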
# [11] = qHTS assay to identify small molecule antagonists of the farnesoid-X-receptor (FXR) signaling pathway - cell viability counter screen (AID 743221; active = well fitted cell-killing curve with a large enough effect in the repeat runs, not every such curve was filed as active; inconclusive = weak or mixed curves, or effect the other way; inactive = no such curve, though single readings can be large or run the other way; note: potency is the fitted concentration of half-maximal effect; nearly all actives have a fitted effect of over 50% in size); conditions: FXR-bla HEK293T viability, CellTiter-Glo luminescence, 16 h; activity change, negative = cytotoxicity: at 62.6 µM (top of the series)
# Method in brief: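 Cytotoxicity counter screen run in the FXR-bla reporter wells: HEK 293T cells exposed to compound with 50 uM (final) chenodeoxycholic acid for 16 h, 37 C, then viability measured by CellTiter-Glo luminescence after 30 min, room temperature.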
# [12] = target: Vitamin D3 receptor (Homo sapiens) (UniProt P11473); assay: qHTS assay to identify small molecule agonists of the vitamin D receptor (VDR) signaling pathway (AID 743222; calls by dose curve; note: potency is the fitted concentration of half-maximal effect); conditions: HEK293T VDR-UAS-bla, beta-lactamase FRET ratio, 16 h; activation: at 63.5 µM (top of the series) unless noted
# Chain of UniProt P11473 (P11473 whole entry, looked up): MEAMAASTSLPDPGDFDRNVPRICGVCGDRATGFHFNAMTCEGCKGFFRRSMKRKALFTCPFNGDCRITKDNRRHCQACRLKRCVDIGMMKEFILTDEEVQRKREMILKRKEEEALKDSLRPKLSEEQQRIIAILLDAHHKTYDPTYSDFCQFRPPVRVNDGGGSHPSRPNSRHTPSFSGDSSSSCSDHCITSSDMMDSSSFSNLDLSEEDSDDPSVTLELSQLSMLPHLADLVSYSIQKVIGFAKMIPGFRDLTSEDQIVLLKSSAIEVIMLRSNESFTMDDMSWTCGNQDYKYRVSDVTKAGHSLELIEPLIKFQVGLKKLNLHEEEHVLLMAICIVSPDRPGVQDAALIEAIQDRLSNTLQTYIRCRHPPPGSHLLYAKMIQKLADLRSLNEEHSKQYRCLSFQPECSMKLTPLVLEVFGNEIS
# Method in brief: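 VDR-bla cells were plated 4 h at 37C/5% CO2, then exposed to compounds in DMSO for 16 h. After LiveBLAzer B/G FRET substrate addition and 2 h at room temperature, beta-lactamase reporter fluorescence was read.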
# [13] = target: Vitamin D3 receptor (Homo sapiens) (UniProt P11473); assay: qHTS assay to identify small molecule antagonists of the vitamin D receptor (VDR) signaling pathway (AID 743223; active = well fitted inhibition curve with a large enough effect in the signal ratio in the repeat runs, not every such curve was filed as active; inconclusive = weak or mixed curves, or effect the other way; inactive = no such curve, though single readings can be large or run the other way; the % refers to the signal ratio; note: % is set by controls: 0 for no effect and ±100 for the full control effect); conditions: VDR-UAS-bla HEK293T, beta-lactamase FRET ratio, 16 h
# Method in brief: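 Antagonist mode: compound added to VDR-bla cells alongside agonist 1alpha,25-dihydroxyvitamin D3 (3 nM final), incubation 16 h at 37C. Read-out is LiveBLAzer FRET fluorescence, 2 h at room temperature.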
# [14] = target: Peroxisome proliferator-activated receptor gamma (Homo sapiens) (UniProt P37231); assay: qHTS assay to identify small molecule antagonists of the peroxisome proliferator-activated receptor gamma (PPARg) signaling pathway (AID 743191; calls by dose curve; note: potency is the fitted concentration of half-maximal effect; nearly all actives have a fitted effect of over 30% in size); conditions: HEK293H PPARg-UAS-bla, beta-lactamase ratio, antagonist, 17 h; ratio activity, negative = inhibition: at 62.6 µM (top of the series) unless noted
# Method in brief: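 GeneBLAzer PPARg UAS-bla HEK293H cells carrying a UAS-driven beta-lactamase reporter were plated at 3000 cells/well, preincubated 5 h at 37C, then given compound for 17 h at 37C; LiveBLAzer B/G FRET substrate was read after 1 h at room temperature.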
# [15] = target: Peroxisome proliferator-activated receptor delta (Homo sapiens) (UniProt Q03181); assay: qHTS assay to identify small molecule agonists of the peroxisome proliferator-activated receptor delta (PPARd) signaling pathway (AID 743212; calls by dose curve; note: potency is the fitted concentration of half-maximal effect); conditions: HEK293H PPARd-UAS-bla, beta-lactamase FRET ratio, 17 h; activation: at 62.6 µM (top of the series) unless noted
# Chain of UniProt Q03181 (Q03181 whole entry, looked up): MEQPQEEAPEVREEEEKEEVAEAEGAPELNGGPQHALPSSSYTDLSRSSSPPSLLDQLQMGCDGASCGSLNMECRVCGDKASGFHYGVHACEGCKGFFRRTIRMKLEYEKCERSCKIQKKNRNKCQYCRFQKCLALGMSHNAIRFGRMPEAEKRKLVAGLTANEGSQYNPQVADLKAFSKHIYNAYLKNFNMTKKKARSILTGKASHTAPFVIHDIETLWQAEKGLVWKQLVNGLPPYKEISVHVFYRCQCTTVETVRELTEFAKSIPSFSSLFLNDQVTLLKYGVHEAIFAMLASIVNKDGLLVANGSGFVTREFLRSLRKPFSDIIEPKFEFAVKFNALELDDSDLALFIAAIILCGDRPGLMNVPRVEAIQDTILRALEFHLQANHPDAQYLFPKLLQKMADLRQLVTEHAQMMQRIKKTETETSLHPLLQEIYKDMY
# Method in brief: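 A PPARd-bla HEK293H line with beta-lactamase under an Upstream Activator Sequence is treated with compounds at 37 C. Substrate loading for 2 h at room temperature precedes the fluorescence measurement.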
# [16] = target: Peroxisome proliferator-activated receptor delta (Homo sapiens) (UniProt Q03181); assay: qHTS assay to identify small molecule antagonists of the peroxisome proliferator-activated receptor delta (PPARd) signaling pathway (AID 743215; active = well fitted inhibition curve with a large enough effect in the signal ratio in the repeat runs, not every such curve was filed as active; inconclusive = weak or mixed curves, or effect the other way; inactive = no such curve, though single readings can be large or run the other way; the % refers to the signal ratio;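 note: cells stimulated with agonist L165041 at 300 nM final during compound exposure; potency is the fitted concentration of half-maximal effect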); conditions: HEK293H PPARd-UAS-bla, beta-lactamase FRET ratio, antagonist, 17 h; ratio activity, negative = inhibition: at 62 µM (top of the series) unless noted
# Method in brief: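 PPARd UAS-bla HEK293H cells were pre-incubated 5 h at 37 C, then given test compounds in DMSO plus agonist L165041 (300 nM final). After 17 h at 37 C, beta-lactamase FRET substrate was added; fluorescence read after 2 h at room temperature.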
# [17] = qHTS assay to identify small molecule agonists of the farnesoid-X-receptor (FXR) signaling pathway - cell viability counter screen (AID 743218); conditions: FXR-bla HEK293T viability, CellTiter-Glo luminescence, 16 h; viability change, negative = cytotoxic: at 62.6 µM (top of the series) unless noted; note: potency is the fitted concentration of half-maximal effect; nearly all actives have a fitted effect of over 45% in size
# Method in brief: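 FXR-UAS-bla HEK 293T cells, plated 5 h at 37 C, were exposed to compounds for 16 h at 37 C. CellTiter-Glo was then added to the same wells as the bla readout; luminescence read after 30 min at room temperature.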
# Tags give direction and shape of the fitted curve or compound fluorescence and quenching.
structure (smiles),measurement,setting,value
CC(CCc1ccccc1)NCC(O)c1ccc(O)c(C(N)=O)c1 (configuration not stated),Potency,[1],active: 13.7 µM
same,Potency,[2],inconclusive: 61.1 µM
same,Potency,[3],inactive
same,Potency,[4],"inconclusive: 9.69 µM [rising, full curve, poor fit]"
same,Potency,[5],inconclusive: 36.7 µM [activator]
same,"viability change, negative = cytotoxic",[6],inconclusive: -16.4% [cytotoxic]
same,"activity change, negative = inhibition",[7],inconclusive: -0.598%
CC/C(=C(/CC)c1ccc(O)cc1)c1ccc(O)cc1,Potency,[1],active: 68 µM
same,Potency,[2],"inconclusive: 68 µM [falling, single point]"
same,Potency,[8],"inconclusive: 61.2 µM [cytotoxic] and inconclusive: 4.9 µM [cytotoxic, full curve, poor fit]"
same,"activity change, negative = cytotoxicity",[8],inconclusive: -52.6% [cytotoxic]
same,Potency,[9],"inconclusive: 54.5 µM [cytotoxic, partial curve, poor fit] and inconclusive: 54.9 µM [cytotoxic, partial curve]"
same,Potency,[5],inconclusive: 58.9 µM and inconclusive: 51.9 µM and inconclusive: 22 µM [activator]
same,Potency,[10],"inconclusive: 61.2 µM [rising, single point]"
same,Potency,[11],"inconclusive: 54.5 µM [falling, single point]"
same,Potency,[12],"inconclusive: 21.7 µM [rising, single point]"
same,"activity change, negative = inhibition","[13]; activity change, negative = inhibition: at 61 µM (top of the series) unless noted",inconclusive: 2.5% and inconclusive: -16.8%
same,"activity change, negative = inhibition",[13]; at 61 µM (top of the series),inactive: -22.3%
CC(=O)OC(OC(C)=O)c1ccc([N+](=O)[O-])o1,Potency,[1],active: 13.9 µM
same,Potency,[2],"inconclusive: 62.2 µM [falling, single point]"
same,Potency,[3],inconclusive: 55.9 µM [single point]
same,Potency,[14],inconclusive: 55.9 µM [fluorescent]
same,Potency,[4],active: 15.6 µM
same,Potency,[9],active: 19.8 µM
same,Potency,[5],"inconclusive: 35.3 µM [falling, partial curve]"
same,Potency,[15],inconclusive: 55.9 µM
same,Potency,[6],inconclusive: 55.9 µM [cytotoxic]
same,Potency,[16],"inconclusive: 62.7 µM [cytotoxic, single point]"
same,Potency,[7],inconclusive: 62.7 µM
same,Potency,[17],"inconclusive: 55.9 µM [cytotoxic, single point]"
same,Potency,[10],inconclusive: 55.9 µM
same,Potency,[11],"inconclusive: 55.9 µM [falling, single point]"
